Source: PubChem BioAssay AID485294 (National Center for Advancing Translational Sciences (NCATS), 2010)
Hit rate of the full screen: of about 370,000 compounds, about 150 (0.041%) were called active. This list was built around the results that the source calls inconclusive (neither active nor inactive); the mix of calls is not that of the screen. Calls follow the shape of the dose curve; as a rule, active = well fitted inhibition curve with a large enough effect; inconclusive = small, poorly fitted or top-dose-only effect; inactive = flat fitted curve, though single readings scatter. No potency is given beside an inconclusive call; the fits are too rough.

target: Beta-lactamase (Escherichia coli (strain K12)) (UniProt P00811); test: qHTS Inhibitors of AmpC Beta-Lactamase (assay with detergent); settings: AmpC hydrolysis of nitrocefin, absorbance 480 nm, 0.01% Triton; activity change, negative = inhibition: at 114 µM (top of the series); also: nearly all actives have a fitted effect of over 25% in size;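 as to activity change, negative = inhibition: 0% = no-compound wells and -100% = no-enzyme wells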
Outline: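 AmpC (5.3 nM in the dispensed reagent) in 20 mM phosphate pH 7.0 with 0.01% (detergent screen) or 0.0001% Triton X-100 was preincubated with compounds for 15 min at room temperature. Nitrocefin was then added from an 800 uM solution, and hydrolysis was followed at 480 nm.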
Potency is read from the fitted curve at half-maximal effect; tags tell the direction and shape of the fitted curve.

Sequence of UniProt P00811 (P00811 whole entry, looked up): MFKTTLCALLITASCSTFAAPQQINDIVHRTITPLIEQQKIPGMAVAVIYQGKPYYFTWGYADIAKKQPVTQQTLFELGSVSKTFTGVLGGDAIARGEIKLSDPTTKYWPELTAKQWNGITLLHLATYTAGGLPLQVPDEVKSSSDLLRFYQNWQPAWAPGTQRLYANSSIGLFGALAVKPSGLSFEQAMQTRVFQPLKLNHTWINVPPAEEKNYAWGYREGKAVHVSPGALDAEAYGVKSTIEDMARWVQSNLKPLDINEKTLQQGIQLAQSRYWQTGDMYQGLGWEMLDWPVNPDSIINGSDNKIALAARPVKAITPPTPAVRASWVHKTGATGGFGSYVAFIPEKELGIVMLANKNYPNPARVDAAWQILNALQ

Row | SMILES | Potency | activity change, negative = inhibition
1 | COC(=O)c1ccccc1NC(=O)c1ccc(-c2cccc(Cl)c2)o1 | inconclusive [inhibitor, single point] | –
2 | COc1ccc(Cl)cc1NC(=O)COC(=O)c1ccc(C)o1 | inconclusive [inhibitor, full curve, poor fit] | –
3 | O=C(Cn1cc2c(n1)CCCC2)NCc1cccs1 | inconclusive [inhibitor, full curve, poor fit] | –
4 | COc1ccc(C)cc1NC(=O)NC1CCCc2ccccc21 (stereo not given) | – | inactive: 4.02%
5 | CCN1C/C(=C/c2ccc(N3CCOCC3)cc2)C(=O)/C(=C/c2ccc(N3CCOCC3)cc2)C1 | – | inactive: 3.04%
6 | COc1cc(Cl)ccc1OCc1cc(C(=O)N(C)Cc2cn(C)nc2C)no1 | – | inactive: 9.67%
7 | Fc1ccc(CNc2ncnc3c2c(-c2ccccc2)cn3-c2ccccc2)cc1 | – | inactive: 10.9%
8 | Cc1cc(/C=C(\C#N)C(=O)O)c(C)n1C1CC1 | inconclusive [inhibitor, full curve, poor fit] | –
9 | Cc1ccc(C)c(SCC(=O)Nc2oc(C)c3c(C)n[nH]c(=O)c23)c1 | inconclusive [inhibitor, partial curve, poor fit] | –
10 | COCc1c(C(=O)OCC(=O)NCCc2ccc(S(N)(=O)=O)cc2)oc2ccccc12 | – | inactive: 4.97%
11 | COc1cc(OC)cc(C(=O)NC(=S)Nc2cc3oc4ccccc4c3cc2OC)c1 | inconclusive [inhibitor, partial curve] | –
12 | CCOc1ccc(OCCOc2ncnc3ccccc23)cc1 | inconclusive [inhibitor, single point] | –
13 | COc1ccc(CNCC(O)(c2ccccc2)c2ccc(Cl)cc2)cc1 (stereo not given) | – | inactive: 0.923%
14 | COc1ccc(CN(C)C(=O)c2cccc(NS(=O)(=O)c3ccccc3)c2)cc1F | inconclusive [inhibitor, full curve] | –
15 | CCN1C(=O)[C@H]2[C@@H](c3ccc(-c4ccc(OC)cc4)cc3)N3CCC[C@@]3(C(=O)OC)[C@H]2C1=O | inconclusive [inhibitor, single point] | –
16 | O=C(N/N=C/c1c(O)n(CCC2=CCCCC2)c(=O)[nH]c1=O)c1ccccc1 | – | inactive: -9.62%
17 | N#Cc1ccc(NC(=O)Cn2cnc([N+](=O)[O-])c2)cc1 | inconclusive [inhibitor, single point] | –
18 | Cc1cccc(C)c1OCc1cc(C(=O)N2CCN(Cc3nccn3C)CC2)no1 | inconclusive [inhibitor, single point] | –
19 | Cc1c(Cl)c([N+](=O)[O-])nn1CCCC(=O)N(Cc1ccccc1)Cc1ccccc1 | inconclusive [inhibitor, partial curve] | –
20 | CSCCC(NS(=O)(=O)c1ccccc1)C(=O)Nc1nccs1 (stereo not given) | inconclusive [inhibitor, full curve, poor fit] | –
21 | OC(CNCc1ccc(Cl)cc1)(c1ccccc1)c1ccc(F)cc1 (stereo not given) | – | inactive: 3.86%
22 | COc1ccccc1C(=O)NCCC(=O)NCCCSc1ccccc1 | inconclusive [inhibitor, full curve] | –
23 | CCOC(=O)c1sc(=NC(=O)/C=C/c2cccs2)n(C)c1C | inconclusive [inhibitor, full curve, poor fit] | –

Row | SMILES | Potency | activity change, negative = inhibition
24 | COc1ccc(CN2CCCC2C(=O)Nc2ccc(OC)c(OC)c2)cc1OC (stereo not given) | inconclusive [inhibitor, full curve] | –
25 | O=C(O)c1ccc2[nH]c3c(c2c1)CSCC3 | inconclusive [inhibitor, full curve] | –
26 | Cc1ccc(C#CC[N+]2(CC#Cc3ccc(C)cc3)CCCCC2)cc1 | – | inactive: -7.61%
27 | Cc1c2cnn(-c3ccccc3)c(=O)c2c(C)n1CCCC(=O)Nc1ccc(F)cc1F | – | inactive: 2.11%
28 | CC(=O)N1CCN=C1SCc1cccc(C(F)(F)F)c1 | inconclusive [inhibitor, full curve] | –
29 | COC(=O)c1sccc1NC(=O)CN1CCN(c2ccc(F)cc2)CC1 | inconclusive [inhibitor, partial curve, poor fit] | –
30 | CCOC(=O)Nc1oc2ccccc2c(=O)c1C | inconclusive [inhibitor, full curve, poor fit] | –
31 | CCC(Oc1ccccc1)C(=O)Nc1ccccc1OCc1cc(=O)n2ccccc2n1 (stereo not given) | – | inactive: 17.4%
32 | Cc1cc(C)c(NC(=O)CO/N=C2\CCCc3nonc32)c(C)c1 | inconclusive [inhibitor, full curve, poor fit] | –
33 | CCOc1ccc(NS(=O)(=O)c2ccc(C(=O)NCC(c3ccco3)N(C)C)cc2)cc1 (stereo not given) | inconclusive [inhibitor, partial curve, poor fit] | –
34 | Cc1cc(C)c(OCCN2CCOCC2)c(Cl)c1 | inconclusive [inhibitor, full curve] | –
35 | COc1ccccc1S(=O)(=O)Cc1ccc(C(=O)N2CCN(c3ccc(C)cc3)C(C)C2)o1 (stereo not given) | – | inactive: 2.28%
36 | Cc1ccc2nc(NC(=S)NC(=O)c3ccc(OC(C)C)cc3)sc2c1 | – | inactive: -7.16%
37 | O=C(CCOc1ccccc1)N1CCN(S(=O)(=O)c2cccs2)CC1 | inconclusive [inhibitor, partial curve, poor fit] | –
38 | O=C(Nc1cccc(N2C(=O)C=CC2=O)c1)c1cccs1 | inconclusive [inhibitor, partial curve, poor fit] | –
39 | CCOC(=O)C=C(C(=O)OCC)C(=O)OCC | – | inactive: 2.99%
40 | COc1cccc(NC(=O)CCCCCN2C(=O)[C@@H]3Cc4ccccc4CN3C2=O)c1 | – | inactive: 3.24%
41 | COc1ccccc1S(=O)(=O)Cc1ccc(C(=O)NCc2ccc3c(c2)OCO3)o1 | inconclusive [inhibitor, partial curve] | –
42 | CN(CC(=O)NC1CC1)S(=O)(=O)c1cc(Cl)ccc1Cl | – | inactive: 3.08%
43 | CC1=CC(C)(C)n2c(O)c(N=N)c3cc(C)cc1c32 | inconclusive [inhibitor, full curve, poor fit] | –
44 | O=C(O)/C=C\c1ccccc1Oc1cccc(Cl)c1 | inconclusive [inhibitor, partial curve, poor fit] | –
45 | CCCOc1ccc(C2c3c(-c4ccccc4O)n[nH]c3C(=O)N2Cc2ccncc2)cc1OCC (stereo not given) | – | inactive: 23.2%
